Among all 48,000 compounds or so, about 450 (0.94%) were called active. Another 19% or so got no clear call; they are omitted. Calls follow the shape of the dose curve; as a rule, active = well fitted inhibition curve with a large enough effect; inconclusive = small, poorly fitted or top-dose-only effect; inactive = no such curve, though single readings can be large or run the other way. The list shows a part of the results.
assay: Primary qHTS for Identification of Small Molecule Inhibitors of Huntingtin Promoter Activity; conditions: HEK293 HTT promoter firefly luciferase reporter (activity 0% = vehicle and -100% = no light), 24 h; series mostly up to 57.5 µM; activity change, negative = inhibition: at the top concentration; also: nearly all actives have a fitted effect of over 50% in size
Outline: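 Quantitative HTS used concentration series of up to 57.5 uM final on HEK293 luciferase reporter cells, 24 h at 37 degrees C. Readout was Dual-Glo firefly luminescence.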

Activity change, negative = inhibition, inactive:
COc1ccc(-c2nc(N3CCOCC3)c3sc(CN(C)c4ncc(C(=O)NO)cn4)cc3n2)cn1 109%, COc1ccccc1NC(=O)c1oc2ccccc2c1NC(=O)Cc1ccccc1 -15.5%, O=C(CN1C(=O)CC(c2ccccc2)=Nc2ccccc21)Nc1ccc(Br)cc1 -24.2%, CNC(=O)c1ccc2c(c1)N(Cc1cc(C)ccc1C)C(=O)c1ccccc1S2 -23%, COc1ccc(CNC(=O)c2ccc(-c3nc(CSc4ccc(C)cc4)c(C)o3)cc2)c(OC)c1 -19.1%, Cc1cccc(CCNC(=O)c2cc3c(s2)-c2c(C)cccc2OC3)c1 -33.8%, Cc1ccc2c(c1)N(C(=O)Nc1cccc3c1CCCC3)CCO2 -13.4%, CCCN1CCN(C(=O)Cn2c(-c3cccs3)cc3cc(F)ccc32)CC1 -3.25%, O=C(CSc1cn(CC(=O)N2CCCCC2)c2ccccc12)Nc1ccccc1 -28.9%, Cc1ccc(C)c(NC(=O)C2CCCN(c3ncnc4onc(C)c34)C2)c1 (centres undefined) -10.6%, O=C(Cn1c(=O)n(-c2ccccc2)c(=O)c2c3c(sc21)CCCC3)Nc1ccc(F)cc1F -4.06%, Cc1cc(=O)n(Cc2ccc(Cl)cc2)c2c1c(C)nn2-c1ccccc1 -8.84%, O=C(NCc1noc2ccccc12)N1CCN(c2ccccc2)CC1 11.8%, O=C(NCC(c1ccco1)S(=O)(=O)c1cccs1)c1ccc(F)c(F)c1 (centres undefined) -12.1%, CCc1ccccc1NC(=O)N1CCCn2nc(C)cc21 -14.6%, Cc1nc(-c2ccccc2)sc1-c1ccc(SCC(=O)NCc2ccccc2Cl)nn1 13.2%, Cc1nn(C)c2c1c(-c1ccccc1)cc(=O)n2CC(=O)NC(C)c1ccccc1 (centres undefined) -22.9%, CCOc1ccc(-c2cc3nc(C4CCN(C(=O)OC(C)(C)C)CC4)c(C(=O)Nc4cc(OC)ccc4OC)cn3n2)cc1 -30.8%, Cc1ccc(Cl)cc1NC(=O)c1sc(-n2nc(C)c(Cc3ccc4c(c3)OCO4)c2C)nc1C -2.8%, CCCCCn1c(CN2CCN(c3ccc(OC)cc3)CC2)nc2c1c(=O)[nH]c(=O)n2C -19.3%, Cc1ccc(Cl)cc1NC(=O)Nc1cccc(OCc2cc(=O)n3ccccc3n2)c1 13.8%, Cc1cc(=O)n(Cc2ccccc2)c2c1c(C)nn2C -28.8%, COCCNC(=O)c1ccc2nc(Cc3ccccc3)oc2c1 8.89%, CC(C)N(CCCNC(=O)Cn1ncc2c([nH]c3ccccc32)c1=O)Cc1ccccc1 -0.509%, Cc1ccc(Nc2nnc(-c3ccc(C)c(S(=O)(=O)N4CCOCC4)c3)c3ccccc23)cc1 -17.8% [at 11.5 µM], Cc1cc(C)c2c(=O)cc(C(=O)Nc3sc4c(c3C(=O)NCC3CCCO3)CCCC4)oc2c1 (centres undefined) 9.29%, CCC(=O)C1=C(c2ccc(OC)c(OC)c2)N(C(=O)CC)n2c(nnc2-c2ccc(C)cc2)S1 -4.76%, CC(=O)c1ccc(N2CCN(c3ccc4cc(S(=O)(=O)N5CCCCC5)ccc4n3)CC2)cc1 0%, CCOC(=O)c1ccc(NC(=O)CSc2nc3ccccc3c(=O)n2CCC(=O)NC2CCCCC2)cc1 12.8%, COc1ccc(-c2nc(CS(=O)(=O)CC(=O)NCCc3ccc(C)cc3)c(C)o2)cc1 -10.1%, CC(=O)c1cc(-c2ccccc2)n(CC(=O)Nc2ccc(C)c(C)c2)c1C -27.4%, CCOc1ccc(CNC(=O)CS(=O)(=O)c2cccc3nsnc23)cc1 -12.9%, COc1ccccc1-c1noc(-c2ccc(NC3CCCC3)c([N+](=O)[O-])c2)n1 40%, Cc1cc2nc(-c3ccc(NC(=O)c4ccccc4F)cc3)oc2cc1C 26.9%, CN(C)c1ccc(N=NS(=O)(=O)O)cc1 -15.2% [at 116 µM], Cc1cccc(C(=O)Nc2ccc3nc(SCCOc4ccccc4)sc3c2)c1 -6.04%, COc1ccc(CCNc2nc(SCc3ccc(Cl)cc3)nc3ccccc23)cc1OC -3.87%, Nc1ncc(S(=O)(=O)Nc2ccc(F)cc2F)cn1 -7.65%, CCc1cnc2c(c1SCC(=O)NCc1ccc(F)cc1)c(=O)n(C)c(=O)n2C -1.93%, Nc1c(C(=O)Nc2cccc(F)c2)c2ccccn2c1C(=O)c1ccccc1 -1.46%, CCOC(=O)c1c(NC(=O)COc2cccc(C)c2C)sc(C(C)=O)c1C -4.68%, COc1ccc(N2CCN(C(c3ccccc3F)c3sc4nc(-c5ccco5)nn4c3O)CC2)cc1 (centres undefined) -2.45%, COc1ccc(Cl)cc1NC(=O)Cn1c(=O)c(-c2ccccc2NC(C)=O)nc2ccccc21 -1.34%, COc1ccc(NC(=O)CN2C(=O)COc3ccc(S(=O)(=O)N4CCCCC4)cc32)cc1OC -10.8%, Cc1cc(C)c2c(c1)c(C)cc1nnc(SCC(=O)c3ccc(F)cc3)n12 -2.6%, CCCCC(=O)N1CCc2cc(OC)c(OC)cc2C1COc1ccc(OC)cc1 (centres undefined) -28.2%, Cc1ccc(C)c(Cn2c(C(=O)O)c(CNCc3cccs3)c3ccccc32)c1 -25.2%, Cc1cc(-c2ccccc2)n2nc(-c3ccccc3)cc2n1 -15.8%, CN(C)CCNC(=O)C(=O)NCC(c1ccc2c(c1)OCO2)N1CCOCC1 (centres undefined) 1.01%, CCOc1ccc(C(c2c(O)cc(C)n(Cc3ccco3)c2=O)N2CCCCC2)cc1 (centres undefined) -12.5%, Cc1ccc(NC(=O)CC2Sc3ccc(C(F)(F)F)cc3NC2=O)cc1 (centres undefined) -3.38%, COc1ccc(CNC(=O)Nc2cn(CC(C)C)c(=O)c3ccccc23)cc1 -11.5%, CC(=O)c1ccc(NC(=O)CN(C)S(=O)(=O)c2cnc[nH]2)cc1 -10.2%, Cc1ncc(CO)c(C=O)c1O 4.73%, Cc1ccc(OCCSc2nc(C)c(Cc3ccccc3)c(=O)[nH]2)cc1 -11.9%, Cc1cc(C)c(NC(=O)CSc2nncn3c2cc2oc(C)cc23)c(C)c1 0.588%, CCN1C(=O)c2ccccc2C1Nc1ccc(OCCN2CCCCC2)cc1 (centres undefined) -0.844%, O=C(CCCc1ccccc1)NC1CC(=O)N(c2ccc(F)cc2)C1 (centres undefined) 4.55%, CC(=O)c1cccc(NS(=O)(=O)c2cc3c(cc2C)N(C(C)=O)CCO3)c1 8.54%, Cc1ccc(NC(=O)N2CCC(CN3CCCC3)CC2)c(C)c1 -16.1%, Cc1ccc(-c2nc(C(=O)NCc3ccccc3Cl)c3n2CCCCC3)cc1 -22.9%, CCC(=O)Oc1ccc(C2Nc3ccccc3-c3nnc(SC)nc3O2)cc1 (centres undefined) 5.68%, CN1N=C(C(N)=O)CCC1=O 11.8%, Cc1ccc2nc(-c3cc(NC(=O)COc4ccc(C)c(C)c4)ccc3Cl)oc2c1 6.78%
